Data as given in the antibiotic and cytotoxicity screens of Wong et al. (2023).
The list shows a part of the results.

How the values were obtained:
HSkMC = human skeletal muscle cells; assay: cytotoxicity call (relative viability < 0.9); conditions: 10 µM
HepG2 = assay: cytotoxicity call (relative viability < 0.9); conditions: 10 µM
S. aureus RN4220 = assay: growth inhibition call (relative growth <= 0.2); conditions: 50 µM

C[C@@H]1CCCCO[C@H](CN(C)C(=O)Cc2ccccc2)[C@H](C)CN([C@H](C)CO)C(=O)c2cc(NC(=O)c3ccccc3)ccc2O1
inactive: cytotoxicity call (HSkMC) | cytotoxicity call (HepG2) | growth inhibition call (S. aureus RN4220)

C[C@H]1CN([C@@H](C)CO)C(=O)c2cccc(NS(=O)(=O)c3ccccc3)c2O[C@@H]1CN(C)S(=O)(=O)c1cn(C)cn1
inactive: cytotoxicity call (HSkMC) | cytotoxicity call (HepG2) | growth inhibition call (S. aureus RN4220)

Cc1noc(C)c1NC(=O)N(C)C[C@H]1OCCCC[C@H](C)Oc2ccc(NC(=O)CCC(F)(F)F)cc2C(=O)N([C@@H](C)CO)C[C@@H]1C
inactive: cytotoxicity call (HSkMC) | cytotoxicity call (HepG2) | growth inhibition call (S. aureus RN4220)

COc1ccc(NC(=O)Nc2ccc3c(c2)C(=O)N([C@H](C)CO)C[C@H](C)[C@@H](CN(C)C(=O)NC2CCCCC2)OCCCC[C@@H](C)O3)cc1
inactive: cytotoxicity call (HSkMC) | cytotoxicity call (HepG2) | growth inhibition call (S. aureus RN4220)

CC(Oc1c(Cl)cccc1Cl)C1=NCCN1.Cl (stereo not given)
inactive: cytotoxicity call (HSkMC) | cytotoxicity call (HepG2) | growth inhibition call (S. aureus RN4220)

C[C@H]1CN([C@@H](C)CO)C(=O)c2cc(NC(=O)CCCCCC(=O)Nc3ccccc3N)ccc2O[C@H]1CN(C)C(=O)Nc1ccccc1
inactive: cytotoxicity call (HSkMC) | cytotoxicity call (HepG2) | growth inhibition call (S. aureus RN4220)

CC(C)(C)[S@](=O)N1Cc2cc(C(=O)NCCc3ccncc3)nc(-c3cccc(-c4ccccc4)c3)c2[C@@H]1CCO
inactive: cytotoxicity call (HSkMC) | cytotoxicity call (HepG2) | growth inhibition call (S. aureus RN4220)

COc1cc(Cl)ccc1Oc1ccc(Cl)cc1Cl
inactive: cytotoxicity call (HSkMC) | cytotoxicity call (HepG2) | growth inhibition call (S. aureus RN4220)

C=CCOC(=O)[C@@H]1[C@H]2C(=O)O[C@H](c3ccccc3)[C@H](c3ccccc3)N2[C@H](c2ccc(OCCOC(=O)[C@H]3C[C@H]4C(=O)NCC(=O)N4[C@H]3c3ccc(O)cc3)cc2)[C@@]12C(=O)Nc1ccccc12
inactive: cytotoxicity call (HSkMC) | cytotoxicity call (HepG2) | growth inhibition call (S. aureus RN4220)

C[C@@H]1CN([C@@H](C)CO)C(=O)Cc2cc(NC(=O)CCCN(C)C)ccc2O[C@@H]1CN(C)S(=O)(=O)c1cccs1
inactive: cytotoxicity call (HSkMC) | cytotoxicity call (HepG2) | growth inhibition call (S. aureus RN4220)

O=c1c2cccnc2ccn1C[C@H]1COCCO1
inactive: cytotoxicity call (HSkMC) | cytotoxicity call (HepG2) | growth inhibition call (S. aureus RN4220)

C[C@@H]1CCCCO[C@H](CN(C)C(=O)Nc2ccc(F)cc2)[C@H](C)CN([C@@H](C)CO)C(=O)c2cc(NC(=O)CCC(F)(F)F)ccc2O1
inactive: cytotoxicity call (HSkMC) | cytotoxicity call (HepG2) | growth inhibition call (S. aureus RN4220)

CCCOc1ccc(C(=O)OCCN(CC)CC)cc1N.Cl
inactive: cytotoxicity call (HSkMC) | cytotoxicity call (HepG2) | growth inhibition call (S. aureus RN4220)

COc1ccc(S(=O)(=O)N2C[C@@H](O)COC[C@@H]3O[C@@H](CC(=O)N[C@@H]4CCN(Cc5ccccc5)C4)CC[C@H]32)cc1
inactive: cytotoxicity call (HSkMC) | cytotoxicity call (HepG2) | growth inhibition call (S. aureus RN4220)

Cc1ccccc1S(=O)(=O)N1C[C@H](O)COC[C@@H]2O[C@H](CC(=O)NCCc3ccccc3)CC[C@H]21
inactive: cytotoxicity call (HSkMC) | cytotoxicity call (HepG2) | growth inhibition call (S. aureus RN4220)

C[C@H]1CN([C@@H](C)CO)C(=O)c2cccc(NS(=O)(=O)c3cccs3)c2O[C@H]1CN(C)S(=O)(=O)c1ccc(F)cc1
inactive: cytotoxicity call (HSkMC) | cytotoxicity call (HepG2) | growth inhibition call (S. aureus RN4220)

C[C@@H]1CN([C@@H](C)CO)C(=O)c2cccc(NS(=O)(=O)c3ccccc3)c2O[C@H]1CN(C)Cc1ccc(Oc2ccccc2)cc1
inactive: cytotoxicity call (HSkMC) | cytotoxicity call (HepG2) | growth inhibition call (S. aureus RN4220)

COCCNC(=O)C[C@@H]1CC[C@@H]2[C@H](COC[C@H](O)CN2S(=O)(=O)c2ccccc2C)O1
inactive: cytotoxicity call (HSkMC) | cytotoxicity call (HepG2) | growth inhibition call (S. aureus RN4220)

C[C@@H]1CN([C@@H](C)CO)C(=O)c2cc(NS(C)(=O)=O)ccc2O[C@@H](C)CCCCO[C@@H]1CN(C)C(=O)c1ccncc1
inactive: cytotoxicity call (HSkMC) | cytotoxicity call (HepG2) | growth inhibition call (S. aureus RN4220)

COc1ccc2c(c1)[n+]([O-])c1c([n+]2[O-])CCC1
inactive: cytotoxicity call (HSkMC) | cytotoxicity call (HepG2) | growth inhibition call (S. aureus RN4220)

CC(C)(C)S(=O)N1Cc2cc(C(=O)N[C@@H]3CCN(Cc4ccccc4)C3)nc(-c3cccc(C#CCC4CCCC4)c3)c2[C@@H]1CCO (stereo not given in full)
inactive: cytotoxicity call (HSkMC) | cytotoxicity call (HepG2) | growth inhibition call (S. aureus RN4220)

COc1cccc(S(=O)(=O)N2C[C@@H](O)COC[C@@H]3O[C@@H](CC(=O)NCCCN4CCOCC4)CC[C@H]32)c1
inactive: cytotoxicity call (HSkMC) | cytotoxicity call (HepG2) | growth inhibition call (S. aureus RN4220)

C[C@@H]1CN([C@H](C)CO)C(=O)c2cc(NS(=O)(=O)c3ccc(F)cc3)ccc2O[C@@H](C)CCCCO[C@@H]1CN(C)Cc1ccccc1
inactive: cytotoxicity call (HSkMC) | cytotoxicity call (HepG2) | growth inhibition call (S. aureus RN4220)

C[C@@H]1CN([C@@H](C)CO)C(=O)CCCn2cc(nn2)CO[C@H]1CN(C)S(=O)(=O)c1cn(C)cn1
inactive: cytotoxicity call (HSkMC) | cytotoxicity call (HepG2) | growth inhibition call (S. aureus RN4220)

C[C@H](O)C#Cc1ccc2c(c1)O[C@H](CN(C)C(=O)Cc1ccccn1)[C@@H](C)CN([C@@H](C)CO)S2(=O)=O
inactive: cytotoxicity call (HSkMC) | cytotoxicity call (HepG2) | growth inhibition call (S. aureus RN4220)
